Target: human EphA2 (Homo sapiens, UniProt P29317)
Assay: Competition Binding Assay (fluorescence polarisation, competition with fluorescent tracer BCY90)
Method: Peptides without a fluorescent tag were tested in competition with a peptide with a fluorescent tag and a known Kd.
Peptides were diluted to an appropriate concentration in assay buffer as described in the direct binding assay with a maximum of 5% DMSO, then serially diluted 1 in 2. […] Measurements were conducted, however the gain was determined prior to the first measurement. Data analysis was in Systat Sigmaplot version 12.0 where the mP values were fit to a user defined cubic equation to generate a Ki value: • f=ymax+(ymin−ymax)/Lig*((Lig*((2*((Klig+Kcomp+Lig+Comp−Prot*c)^2−3*(Kcomp*(Lig−Prot*c)+Klig*(Comp−Prot*c)+Klig*Kcomp))^0.5*COS(ARCCOS((−2*(Klig+Kcomp+Lig+Comp−Prot*c)^3+9*(Klig+Kcomp+Lig+Comp−Prot*c)*(Kcomp*(Lig−Prot*c)+Klig*(Comp−Prot*c)+Klig*Kcomp)−27*(−1*Klig*Kcomp*Prot*c))/(2*((((Klig+Kcomp+Lig+Comp−Prot*c)^2−3*(Kcomp*(Lig−Prot*c)+Klig*(Comp−Prot*c)+Klig*Kcomp))^3)^0.5)))/3))−(Klig+Kcomp+Lig+Comp−Prot*c)))/((3*Klig)+((2*((Klig+Kcomp+Lig+Comp−Prot*c)^2−3*(Kcomp*(Lig−Prot*c)+Klig*(Comp−Prot*c)+Klig*Kcomp))^0.5*COS(ARCCOS((−2*(Klig+Kcomp+Lig+Comp−Prot*c)^3+9*(Klig+Kcomp+Lig+Comp−Prot*c)*(Kcomp*(Lig−Prot*c)+Klig*(Comp−Prot*c)+Klig*Kcomp)−27*(−1*Klig*Kcomp*Prot*c))/(2*((((Klig+Kcomp+Lig+Comp−Prot*c)^2−3*(Kcomp*(Lig−Prot*c)+Klig*(Comp−Prot*c)+Klig*Kcomp))^3)^0.5)))/3))−(Klig+Kcomp+Lig+Comp−Prot*c)))). […]

Chain of human EphA2 (P29317 24-976): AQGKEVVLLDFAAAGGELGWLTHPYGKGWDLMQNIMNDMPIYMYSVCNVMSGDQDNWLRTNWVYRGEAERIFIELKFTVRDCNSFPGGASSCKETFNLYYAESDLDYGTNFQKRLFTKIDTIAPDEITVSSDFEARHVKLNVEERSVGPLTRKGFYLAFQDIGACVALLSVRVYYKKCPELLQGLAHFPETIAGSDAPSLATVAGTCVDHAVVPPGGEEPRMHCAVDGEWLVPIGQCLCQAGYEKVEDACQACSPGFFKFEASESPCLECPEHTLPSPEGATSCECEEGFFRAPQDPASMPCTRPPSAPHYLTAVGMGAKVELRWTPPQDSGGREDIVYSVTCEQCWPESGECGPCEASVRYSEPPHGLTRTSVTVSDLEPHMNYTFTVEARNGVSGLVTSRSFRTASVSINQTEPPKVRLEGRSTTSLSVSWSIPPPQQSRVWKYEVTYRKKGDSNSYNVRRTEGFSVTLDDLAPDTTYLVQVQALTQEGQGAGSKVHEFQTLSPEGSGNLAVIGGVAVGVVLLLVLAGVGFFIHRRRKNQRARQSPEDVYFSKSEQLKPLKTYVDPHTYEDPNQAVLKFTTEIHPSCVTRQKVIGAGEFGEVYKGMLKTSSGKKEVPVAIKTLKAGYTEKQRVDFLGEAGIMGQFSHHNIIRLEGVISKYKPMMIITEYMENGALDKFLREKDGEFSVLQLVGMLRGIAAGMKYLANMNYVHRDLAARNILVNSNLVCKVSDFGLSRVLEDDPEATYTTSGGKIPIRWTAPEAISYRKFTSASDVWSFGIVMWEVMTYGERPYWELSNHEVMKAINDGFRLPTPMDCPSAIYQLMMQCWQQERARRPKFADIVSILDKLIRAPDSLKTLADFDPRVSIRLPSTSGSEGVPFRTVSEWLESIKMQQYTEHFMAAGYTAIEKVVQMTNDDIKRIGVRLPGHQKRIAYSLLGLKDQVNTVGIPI

Substance: A-[HArg]-D-Ci[HyP]LVNPLCiiLHP[dD]W[HArg]Ciii [BCY9594]
- Ki: 1.44 nM

Substance: AD-Ci[HyP]LVNPLCiiLEP[dD]WTCiii [BCY13128]
- Ki: 16.1 nM

— US20260327262A1, “BICYCLIC PEPTIDE LIGANDS SPECIFIC FOR EPHA2” (BicycleTx Limited, priority 2019, published 2026)
